This is an account of results in article PMC4336329 (PLoS ONE, 2015).

Structures are written as SMILES. About 14,000 (4.5%) of roughly 310,000 compounds showed an effect of 50% or more. The effect is printed as a negative number. The list shows a part of the results.
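Also: peak tail current of the secondary pulse compared with the same well before compound.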

human ether-à-go-go-related gene (hERG) potassium channel, sequence (Q12809 whole entry, looked up): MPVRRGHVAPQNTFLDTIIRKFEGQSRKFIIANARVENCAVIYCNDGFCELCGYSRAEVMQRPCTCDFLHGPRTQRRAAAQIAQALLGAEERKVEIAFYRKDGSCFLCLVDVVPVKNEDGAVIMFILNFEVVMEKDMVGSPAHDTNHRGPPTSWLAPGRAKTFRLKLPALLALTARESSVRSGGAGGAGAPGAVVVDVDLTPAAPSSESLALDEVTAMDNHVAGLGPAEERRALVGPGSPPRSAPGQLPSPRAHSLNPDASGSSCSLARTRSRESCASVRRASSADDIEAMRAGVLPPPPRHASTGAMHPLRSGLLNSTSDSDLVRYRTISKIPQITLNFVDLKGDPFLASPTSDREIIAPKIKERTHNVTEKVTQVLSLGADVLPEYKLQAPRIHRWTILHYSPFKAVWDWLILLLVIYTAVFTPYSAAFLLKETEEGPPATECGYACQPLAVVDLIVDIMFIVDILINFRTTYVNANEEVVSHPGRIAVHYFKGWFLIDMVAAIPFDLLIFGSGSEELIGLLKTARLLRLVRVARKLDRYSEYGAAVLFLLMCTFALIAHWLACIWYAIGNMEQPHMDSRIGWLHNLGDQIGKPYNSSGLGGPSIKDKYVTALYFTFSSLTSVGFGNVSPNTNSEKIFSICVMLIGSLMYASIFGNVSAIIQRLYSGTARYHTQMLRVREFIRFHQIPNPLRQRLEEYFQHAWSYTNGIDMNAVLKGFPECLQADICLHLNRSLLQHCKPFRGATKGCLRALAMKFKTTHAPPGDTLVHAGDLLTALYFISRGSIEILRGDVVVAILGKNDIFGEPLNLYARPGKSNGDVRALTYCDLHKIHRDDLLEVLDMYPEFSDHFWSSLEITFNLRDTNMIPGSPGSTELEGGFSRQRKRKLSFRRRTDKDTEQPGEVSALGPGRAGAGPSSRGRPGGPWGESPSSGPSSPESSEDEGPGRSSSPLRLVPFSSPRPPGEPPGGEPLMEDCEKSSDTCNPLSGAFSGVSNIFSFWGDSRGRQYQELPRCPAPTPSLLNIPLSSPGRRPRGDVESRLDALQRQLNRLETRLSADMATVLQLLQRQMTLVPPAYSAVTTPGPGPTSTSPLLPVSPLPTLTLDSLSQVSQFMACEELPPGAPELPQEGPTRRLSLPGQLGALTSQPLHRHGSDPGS

The assay has as its target human ether-à-go-go-related gene (hERG) potassium channel (human, UniProt Q12809). The assay is described as follows: primary screen, population patch clamp on CHO cells stably expressing hERG.
As for `COc1ccc2c(c1OC)C(=O)N1c3ccccc3C(=O)N(c3ccc(F)cc3)C21` (centres unmarked), the “hERG current change (%, negative = inhibition) at 10uM” value came to 2.75%.
Turning to `COc1cccc(OC)c1C(=O)Nc1c(C(=O)N2CCN(C)CC2)oc2ccccc12`, the “hERG current change (%, negative = inhibition) at 10uM” value is listed as -29.1%.
As to `O=C(CN1CCN(Cc2ccc3c(c2)OCO3)CC1)NCC(F)(F)F`, the “hERG current change (%, negative = inhibition) at 10uM” value was determined as 5.34%.
Turning to `CCNC(=O)C1CCCN(c2nc(C)cc(C)n2)C1` (centres unmarked), the “hERG current change (%, negative = inhibition) at 10uM” value was 16.9%.
Take `Cc1ccc(S(=O)(=O)NCc2ccccn2)c(C)c1C`: the “hERG current change (%, negative = inhibition) at 10uM” value is on record as -4.89%.
Then `CCOc1ccc(S(=O)(=O)N2CC(=O)Nc3ccccc32)cc1`, with 22.1%; and `O=C(O)c1cccc(Nc2ccnc(Nc3cccc(C(=O)O)c3)n2)c1`, with 15.6%.
Turning to `CCCn1cnnc1CNC(=O)C1CCC(=O)N(CCCc2ccccc2)C1` (centres unmarked), the “hERG current change (%, negative = inhibition) at 10uM” value is 6.8%.
As to `O=C(O)c1ccccc1C(=O)N1CCN(c2ncccn2)CC1`, the “hERG current change (%, negative = inhibition) at 10uM” value turned out to be 18.6%.
The value for `O=C1C=C(c2ccc(OC(F)(F)F)cc2)C[C@@H](c2ccc(Cl)cc2)C1` was 13.2%; that for `Cc1cccc(NC(=O)c2cnc3sccn3c2=O)n1` was 6.27%; that for `CC(c1cccnc1)N(CCN(C)C)C(=O)Nc1ccc(Cl)c(Cl)c1` (centres unmarked) was -48.2%.
Then `COc1ccc(CCC(=O)NCCS(=O)(=O)N2CCN(c3ccccc3F)CC2)cc1`, with -63.2%; and `CC1CC(C)CN(C(=O)Cn2c(=O)n(CCCCC(=O)NC3CCCC3)c(=O)c3ccccc32)C1` (centres unmarked), with -2.79%.
Then `CCOC(=O)c1c(C)oc2cc(Br)c(OC(=O)N3CCOCC3)cc12`, with -21.5%.
Regarding `COCc1ccc(C(=O)N2CCc3c([nH]c4ccccc34)C2c2ccccn2)s1` (centres unmarked), the “hERG current change (%, negative = inhibition) at 10uM” value was -17.8%.
Then `Cc1cc(=O)oc2cc(OC(C)C(=O)O)c(Cl)cc12` (centres unmarked), with -9.5%.
Consider `Cc1ccc(Cn2c(SCC(N)=O)nc3c2c(=O)n(C)c(=O)n3C)cc1`, for which the “hERG current change (%, negative = inhibition) at 10uM” value is 1.27%.
The value for `O=C(NCCC1=CCCCC1)c1ccc(Br)o1` was -4.78%; that for `COC(=O)CCSCC(=O)Nc1ccc(C)c(S(=O)(=O)N2CCCCC2)c1` was 3.27%; that for `N#Cc1ccccc1OCCOCCNC1CCCC1` was -9.05%.
Then `CCc1c(C)sc(NC(=O)c2cc(-c3ccc(O)cc3)on2)c1C#N`, with 11.2%; and `Cl.NC(Cc1ccccc1)c1nc2ccccc2[nH]1` (centres unmarked), with 24%.
Then `O=C(Nc1ccc(NC(=O)c2cccs2)c(Cl)c1)c1cccs1`, with 25.5%; and `COc1ccc(-n2nc3cc(N)c(Br)cc3n2)cc1`, with 16.7%.
Take `CCc1c(C)sc(NC(NC(C)=O)(C(=O)OC)C(F)(F)F)c1C#N` (centres unmarked): the “hERG current change (%, negative = inhibition) at 10uM” value came to 1.74%.
The value for `COc1cccc(C(C(=O)NC2CCCC2)N(C(=O)c2ccco2)c2ccc(-n3cnnn3)c(C)c2)c1OC` (centres unmarked) was 8.33%; that for `Cc1ccc(O)c(C(CC(=O)NC(C)C)c2ccccc2)c1` (centres unmarked) was 6.85%.
The value for `COC(=O)c1ccc(C2NCCc3cc(OC)c(OC)cc32)cc1` (centres unmarked) was 5%; that for `CC(C)Cc1cc(C(=O)NCCN2CCOCC2)no1` was 7.92%.
Then `O=C(NC12CC3CC(CC(C3)C1)C2)c1ccc(-c2ccc(Br)cc2)o1`, with 8.55%; and `CCn1c(C)c(P(c2ccccc2)c2ccccc2)[n+]2ccccc12.F[B-](F)(F)F`, with -11.6%; and `O=C(COc1ccc(Br)cc1Br)NC(=O)NC1CCCC1`, with 22.3%.
For `Cc1cc(=O)[nH]c(SCCc2ccccc2)n1`, the “hERG current change (%, negative = inhibition) at 10uM” value is reported as 0.0472%.
For `Cc1ccccc1OCC(=O)N1CCC2(CC1)CC(=O)c1ccccc1O2`, the “hERG current change (%, negative = inhibition) at 10uM” value was -57.5%.
The value for `Cc1ccc(CNC(=O)N2CCN(S(=O)(=O)c3ccccc3)CC2)cc1` was 9.31%; that for `COc1ccc(-c2c(C#Cc3ccsc3)c3cc(-c4ccc(OC)nc4)ccc3n2C)cc1` was 18.9%; that for `CCN(CC)CCN(C(=O)CCS(=O)(=O)c1ccccc1)c1nc2cc3c(cc2s1)OCO3.Cl` was -20.6%.
The value for `CCOc1ccc(/C=N/NC(=O)Cc2csc(Nc3cccc(C(F)(F)F)c3)n2)cc1` was -3.29%.
Then `O=C(C/C=N\O)Nc1ccc(Oc2ccccc2)cc1`, with 0.575%.
Consider `CC(NC(=O)CN1C(=O)NC2(CCCCC2C)C1=O)c1ccccc1` (centres unmarked), for which the “hERG current change (%, negative = inhibition) at 10uM” value is given as -1.57%.
As for `COc1ccc(CN2C(=O)CC(Cc3ccc(C)cc3)C2=O)cc1OC` (centres unmarked), the “hERG current change (%, negative = inhibition) at 10uM” value was -4.33%.
Take `O=C(CN1C(=O)CSCC1=O)NCc1ccc(F)cc1`: the “hERG current change (%, negative = inhibition) at 10uM” value is given as 11.2%.
Then `CCNC(=S)NNC(=O)c1cc(-c2cccnc2)nc2ccccc12`, with 12.9%; and `O=C(c1ccc(CNc2c(N3CCCC3)c(=O)c2=O)cc1)N1CC=C(c2ccccc2)CC1`, with -34.3%; and `Cc1ccc(Cn2c(SCCN3CCCCC3)nc3c2c(=O)n(C)c(=O)n3C)cc1`, with -75.4%.
Then `Nc1nnc(SCCOc2ccc(Br)cc2)s1`, with 5.07%; and `O=C(Nc1ccccc1)Nc1ccc(Oc2ncnc3cc(Cl)ccc23)nc1`, with 7.06%.
The value for `O=C(CN1C(=O)CCC1=O)Nc1nc(-c2nc3ccccc3s2)cs1` was -46%; that for `Nn1cc(-c2ccccc2)nc1SCC(=O)NCCN1C(=O)CSC1=O` was 12.9%; that for `O=C(CCCn1cnc([N+](=O)[O-])n1)Nc1cc(Cl)ccc1O` was 7.02%.
`Cc1ccc(S(=O)(=O)NC(C)C(=O)Nc2ccc(C(N)=O)cc2)cc1` (centres unmarked): the “hERG current change (%, negative = inhibition) at 10uM” value is reported as 20.9%.
The value for `CCCCSc1nnc(-c2ccc(C)cc2)c2ccccc12` was 3.91%; that for `Cc1cccc(C)c1OCC(O)CN(Cc1ccccc1O)C1CCCCC1` (centres unmarked) was -4.28%.
The value for `N#Cc1cc(C(=O)c2ccccc2OCC(=O)Nc2ccccc2)cn(C2CCCCC2)c1=O` was 18.7%; that for `CC1CCC(NC(=O)C2CCC(CNc3c(N4CCCCC4)c(=O)c3=O)CC2)CC1` (centres unmarked) was 3.05%; that for `CCCOc1ccc(OCC(=O)c2[nH]c(C)c(C(C)=O)c2C)cc1` was 5.2%.
Then `CCC(=O)c1ccccc1OCCSc1nc(C)cc(=O)[nH]1`, with -11.9%; and `Cc1nnc(SCc2cc(=O)[nH]c(/N=C(\N)Nc3ccccc3Sc3ccccc3)n2)s1`, with -11.1%.
As for `c1ccc2nc(-c3ccc(N4CCOCC4)cc3)ccc2c1`, the “hERG current change (%, negative = inhibition) at 10uM” value is reported as 4.34%.
With `Cc1ccn2c(C(=O)CSc3ccc(Cl)cc3)c(C)nc2c1`, the “hERG current change (%, negative = inhibition) at 10uM” value is on record as 7.28%.
Then `Cc1ccc(COn2nnc3ccc(S(=O)(=O)N4CCOCC4)cc32)cc1`, with -27.2%; and `Cc1c(CCC(=O)O)c(=O)oc2cc(OCc3cccc(F)c3)ccc12`, with 32.1%.
Then `CN1C(C(=O)Nc2ccccn2)=C(O)c2sccc2S1(=O)=O`, with 9.38%.
As for `CC(=O)Nc1ccc(N2CCCCC2)c(C(=O)Nc2cccc(C)c2)c1`, the “hERG current change (%, negative = inhibition) at 10uM” value is reported as -18.1%.
`Cc1nn(CC(=O)Nc2ccc(N(C)C)cc2)c(C)c1[N+](=O)[O-]`: the “hERG current change (%, negative = inhibition) at 10uM” value came out at 7.71%.
The value for `O=C(NCc1nnc(SCc2ccc(F)cc2)n1-c1ccc(F)cc1)C12CC3CC(CC(C3)C1)C2` was -21.7%; that for `CCOc1ccc(S(=O)(=O)N2CCCCCC2)cc1` was -8.37%; that for `O=c1cc(-c2ccccc2)[nH]c2ccccc12` was -11.4%.
The value for `O=c1[nH]cccc1-c1nc2ccccc2n1Cc1cccc(Cl)c1` was -45.3%; that for `COc1ccc(-n2c(=S)[nH]c3cc(C(=O)NC4CCCCC4)ccc3c2=O)c(OC)c1` was -1.84%; that for `O=C(Cc1ccc(F)cc1)N1CCC(CC2CC(c3cccc(Br)c3)=NO2)(C(=O)NCC2CCCCC2)CC1` (centres unmarked) was -8.67%.
Take `CN(C(=O)Nc1ccc(Cl)cc1Cl)C1CCCC1`: the “hERG current change (%, negative = inhibition) at 10uM” value is on record as -18.6%.
The value for `Cl.Nc1cc(F)ccc1N1CCCCCC1` was 19.7%; that for `[O-][Cl+3]([O-])([O-])[O-].c1ccc(C[n+]2ccccc2)cc1` was -3.58%; that for `O=C(CN1CCOCC1)N1N=C(c2cccs2)CC1c1cccs1` (centres unmarked) was 18.9%.
Then `CCOC(=O)c1c(C)n(C)c2cc(Br)c(C)cc12`, with 23.3%; and `COc1ccc(NC(=O)CCN2C(=O)C3CC=C(Cl)CC3C2=O)cc1` (centres unmarked), with 0.455%.
The value for `O=S(=O)(Nc1cccc(-n2cnnn2)c1)c1cnc(Cl)c(Cl)c1` was 2.67%.
With `O=C(O)CN1CCN(Cc2ccccc2Cl)C1=O`, the “hERG current change (%, negative = inhibition) at 10uM” value was determined as 8.99%.
Then `c1cncc(Nc2nc(-c3ccncc3)cs2)c1`, with -15.7%; and `CCOC(=O)c1cc2cc3ccccc3cc2[nH]1`, with -20.2%; and `CN1CCc2c(C#N)c(N3CCOCC3)nc(NCC3CCCO3)c2C1` (centres unmarked), with 11.5%.
Then `CCCNC(=O)Cn1c(=O)oc2ccccc21`, with -3.03%; and `Cc1ccc(NC(=O)c2ccc3c(c2)OCCO3)cc1S(=O)(=O)Nc1cccc(Cl)c1`, with -10.5%.
Consider `O=C1COc2ccc(C(=O)COC(=O)/C=C/c3cccc(F)c3)cc2N1`, for which the “hERG current change (%, negative = inhibition) at 10uM” value amounted to 6.4%.
Regarding `COc1ccc(Cl)cc1NC(=O)CN(C)C(=O)c1ccc(COc2ccccc2)cc1`, the “hERG current change (%, negative = inhibition) at 10uM” value was 13.5%.
On to `Cc1nc([N+](=O)[O-])c(Sc2nc3ccccc3n2C)n1Cc1ccccc1`, for which the “hERG current change (%, negative = inhibition) at 10uM” value is recorded as -9.78%.
With `CC1CC(C)CN(CCCNS(=O)(=O)c2ccc3c(c2)CCN3C(=O)C2CC2)C1` (centres unmarked), the “hERG current change (%, negative = inhibition) at 10uM” value was -13.9%.
